Test results from PubChem BioAssay AID1345083 (National Center for Advancing Translational Sciences (NCATS), 2018).
Where “and” joins values, the source holds several entries; their conditions need not be identical. Equal entries are not always repeated. In all, about 94,000 compounds went through this assay and about 6,200 (6.6%) were called active. The shares of active, inactive and inconclusive entries below differ from those in the screen. The call rests on the fitted dose curve; in most records, active means well fitted inhibition curve with a large enough effect; inconclusive means small, poorly fitted or top-dose-only effect; inactive means flat fitted curve, though single readings scatter. A potency beside an inconclusive call is a rough fit, not a confirmed value.

Test: Cytotoxic Profiling in HEK 293 Cell Line of Diverse Libraries Using Quantitative High-Throughput Screening; further: nearly all actives have a fitted effect of over 60% in size
Conditions: HEK 293 viability, ATP luminescence (CellTiter-Glo), 48-72 h; series mostly up to 115 µM
In short: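 Viability of HEK 293 cells, plated at 250 cells/well, was judged by cellular ATP after compound treatment for 48 or 72 hr. Luminescence was imaged 10 min after CellTiter-Glo addition at room temperature.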
Potency means the concentration at half of the fitted maximal effect; tags describe the fitted curve by direction and shape.

| SMILES | Potency |
| --- | --- |
| CCOC(=O)[C@H]1C[C@]2(CCCCN(CCOC)C2=O)N(C(=O)CC(C)C)[C@H]1c1ccco1 | inconclusive: 89.1 µM [inhibitor, single point] |
| C=CCCC(=O)N1[C@@H](c2ccccc2)[C@@H](C(=O)OCC)C[C@]12CCCCN(CCOC)C2=O | inconclusive: 39.8 µM [inhibitor, single point] |
| Cc1ccc(Cn2cc(-c3ccncc3)cc2C(=O)NCC2CC2)cc1 | inconclusive: 39.8 µM [inhibitor, partial curve, poor fit] |
| O=S(=O)(c1ccccc1)N1CC[C@@H]2COCCN(Cc3cccnc3)[C@@H]2C1 | inconclusive: 100 µM [inhibitor, single point] |
| CC(C)N1C[C@H](C(=O)NCCOc2ccccc2)[C@H](C(=O)O)C1 | inactive |
| COc1ccc2nc(C[C@@H]3C[C@@H](C(C)C)[C@H](CN(Cc4ccccc4F)Cc4ccccc4F)C=C3C)[nH]c2c1 | inconclusive: 17.8 µM [inhibitor, full curve, poor fit] |
| COC(=O)[C@@H]1Cc2c([nH]c3ccccc23)[C@H]2C[C@@H](NCCNC(C)=O)C[C@@H](c3ccc(C(C)C)cc3)N21 | active: 12.6 µM |
| CN(Cc1ccc(F)cc1)Cc1cccc2ccccc12 | inconclusive: 126 µM [inhibitor, partial curve, poor fit] |
| O=C(NCc1cccs1)c1nc(-c2cccnc2)c2ccccn12 | inconclusive: 100 µM [inhibitor, single point] |
| COc1cccc(-c2cn3cc(C(=O)NCCc4ccccc4F)nc3s2)c1 | inconclusive: 50.1 µM [inhibitor, partial curve, poor fit] |
| Cn1nc(-c2cccc(F)c2)c(N2CCCC2)c1NC(=O)NCc1ccccc1 | active: 50.1 µM |
| O=C1NCc2ccccc2CC12CCN(Cc1ccc(F)cc1O)C2 (stereo not drawn) | inconclusive: 89.1 µM [inhibitor, partial curve, poor fit] |
| CCC1(O)CCC12CCN(C(=O)c1ccncc1)CC2 (stereo not drawn) | inactive |
| COC(=O)c1sccc1NC(=O)N1CCCC1Cc1noc(Cc2ccccc2)n1 (stereo not drawn) | inconclusive: 89.1 µM [inhibitor, single point] |
| COc1cccc(CCNC(=O)c2c(C)nc3cnccn23)c1 | inactive |
| COc1cc(C(=O)N2CCC[C@H]2c2nc(-c3ccccc3Cl)no2)cc(OC)c1OC | inconclusive: 89.1 µM [inhibitor, single point] |
| O=C(NC1CCN(c2cc(-c3ccc(F)cc3)[nH]n2)C1)c1cccnc1 (stereo not drawn) | inconclusive: 31.6 µM [inhibitor, full curve, poor fit] |
| O=C(c1nc(-c2ccccc2)c2ccccn12)N1CCOCC1 | active: 89.1 µM |
| Cc1ccc(C2(O)CCN(c3nccc(CCC(F)(F)F)n3)CC2)nc1 | inconclusive: 56.2 µM [inhibitor, partial curve, poor fit] |
| COc1ncc(-c2nccc3c(=O)cc(N(C)c4ccccc4)oc23)cn1 | inactive |
| CNC(=O)[C@@H]1[C@H]2CN(C3CCCCCC3)CCN2C[C@H]1c1ccccc1 | inconclusive: 10 µM [inhibitor, full curve, poor fit] |

| SMILES | Potency |
| --- | --- |
| CCn1c(=O)c2ccnn2c2ccc(C(=O)Nc3ccc(C)c(F)c3)cc21 | active: 44.7 µM |
| O=C(c1ccc2c(c1)OCO2)N1CC2(Cc3ccccc3NC2=O)C1 | inactive |
| CCOC(=O)N1CC(CN2C(=O)c3c(c(C)nn3-c3ccccc3)C2C2CC2)C1 (stereo not drawn) | active: 35.5 µM |
| COc1ccc(-c2cc(-c3cnn(C)c3)cn3cncc23)cn1 | inconclusive: 70.8 µM [inhibitor, partial curve] |
| COc1ccc(C(=O)N2CCc3ccc(C(=O)NCc4ccncc4)cc32)cc1 | inconclusive: 79.4 µM [inhibitor, partial curve, poor fit] |
| COc1ccc2c(c1)CN(CC=C(C)C)C(=O)CCN2CC(O)COc1ccccc1 (stereo not drawn) | active: 79.4 µM |
| COc1ccccc1CN1CC[C@H](c2nnc(Cc3c[nH]c4ccccc34)o2)C1 | active: 89.1 µM |
| COc1ccccc1OCc1nc2c(n1Cc1ccccc1)C(=O)N(Cc1cccc(Cl)c1)CCN2 | inconclusive: 50.1 µM [inhibitor, partial curve, poor fit] |
| O=C(Nc1cccc(F)c1)N1Cc2[nH]cnc2C[C@H]1c1nc(-c2ccccc2)no1 | active: 70.8 µM |
| CN(C)C(=O)c1cc2c(s1)CCC(C(=O)N1CCN(c3ccccc3)CC1)C2 (stereo not drawn) | inconclusive: 56.2 µM [inhibitor, partial curve, poor fit] |
| CC(C)NC(=O)N1CCN(C(=O)c2nc3cccnc3n(CCc3ccccc3)c2=O)CC1 | inactive |
| CC(C)(C)C(=O)N1CCC2(CC1)C(=O)N(CC(=O)Nc1cccc(Cl)c1)CN2c1ccccc1 | active: 35.5 µM |
| COc1ccccc1-c1cccc(CN2CCCC(C(=O)NCc3cccs3)C2)c1 (stereo not drawn) | inconclusive: 31.6 µM [inhibitor, partial curve, poor fit] |
| Cn1ncc2c(C(=O)NC3CCCCCC3)cc(-c3ccccc3C(F)(F)F)nc21 | inconclusive: 35.5 µM [inhibitor, full curve, poor fit] |
| COc1ccc(CNC(=O)N2CCC3(CC2)CC(OCC2CC2)CCO3)cc1 (stereo not drawn) | inactive |
| CCN1C(=O)C2(CCN(C(=O)C3CCCCC3)CC2)c2ccccc21 | inconclusive: 70.8 µM [inhibitor, partial curve, poor fit] |
| COc1ccc(CN2C=C(C(=O)OCc3nc(-c4ccc(F)cc4)no3)C(C)=NS2(=O)=O)cc1 | inconclusive: 44.7 µM [inhibitor, partial curve] |
| NC(=O)c1cccnc1OC1CCN(C(=O)c2cccc(Cl)c2)C1 (stereo not drawn) | inconclusive: 89.1 µM [inhibitor, single point] |
| O=C(Nc1ccc2[nH]ccc2c1)c1cnc2c(c1)N([S+](=O)([O-])c1cccnc1)CCC2 | inconclusive: 100 µM [inhibitor, partial curve] |
| C[C@@H](c1ccccc1)N1C(=O)[C@@H]2CN(C(=O)c3ccc4c(c3)OCO4)CCN2C1=O | inconclusive: 126 µM [inhibitor, single point] |
| O=C(Cc1cccc(Cl)c1)NCc1c[nH]c2ncccc12 | inconclusive: 50.1 µM [inhibitor, partial curve, poor fit] |

| SMILES | Potency |
| --- | --- |
| Cc1cc2nc3n(c(=O)c2n1CC(=O)Nc1ccc(F)c(Cl)c1)CCC3 | inconclusive: 50.1 µM [inhibitor, partial curve, poor fit] |
| COc1cc(OC)cc(C(=O)N2CCCN(c3cc(-c4ccc(C)c(C)c4)[nH]n3)CC2)c1 | inconclusive: 44.7 µM [inhibitor, partial curve, poor fit] |
| Cc1ncc2n1C(=O)N(C1CCN(Cc3ccccc3F)CC1)C2 | inconclusive: 70.8 µM [inhibitor, partial curve, poor fit] and inconclusive: 89.1 µM [inhibitor, partial curve, poor fit] |
| CC(C)c1ccc(CC(=O)N2CCCc3ncc(C(=O)NCc4ccncc4)cc32)cc1 | inconclusive: 89.1 µM [inhibitor, partial curve, poor fit] |
| Cc1cc(C)c(CNC(=O)c2cc(-c3ccccc3F)cc3c2OCCN3C)c(=O)[nH]1 | active: 70.8 µM |
| CNC(=O)C1CCCN(Cc2nc(-c3cccc(Oc4ccccc4)c3)oc2C)C1 (stereo not drawn) | inconclusive: 44.7 µM [inhibitor, partial curve, poor fit] |
| O=C(c1ccncc1)N1CC2CCC(C1)N2Cc1cccc(-c2cccs2)c1 | inconclusive: 50.1 µM [inhibitor, partial curve, poor fit] |
| O=C(NCC(F)(F)F)c1ccc2nc(-c3ccncc3)oc2c1 | inconclusive: 44.7 µM [inhibitor, partial curve, poor fit] |
| Cc1nn(C)c(C)c1S(=O)(=O)N1CCCC(CO)(Cc2ccccc2)C1 (stereo not drawn) | inactive |
| Fc1ccc2c(c1)nc1n2[C@@H](CNCc2ccccn2)COC1 | inconclusive: 112 µM [inhibitor, partial curve, poor fit] |
| Cc1ccc(S(=O)(=O)N(C)Cc2cccc(C(F)(F)F)c2)cc1 | inconclusive: 79.4 µM [inhibitor, partial curve, poor fit] |
| O=C(O)CC1(CC(=O)N[C@@H]2C=C(C(=O)N[C@H]3CCCNC3=O)C[C@@H](O)[C@@H]2O)CCCC1 | inactive |
| O=C(c1ccccc1F)N1CCCN(c2nc3ncccc3o2)CC1 | inactive |
| COc1ccc([C@H]2C[C@@H](O)[C@@H](O)[C@@H]2NC(=O)c2c(-c3ccccc3)noc2C)cc1 | inactive |
| CNC(=O)N1CCC(C2CCN(Cc3ccccc3C#N)C2)CC1 (stereo not drawn) | inconclusive: 100 µM [inhibitor, single point] |
| O=C1Cc2c(-c3cccc4ccccc34)n[nH]c2CN1CCOc1ccccc1 | active: 44.7 µM |
| CC(=O)NCC1CN(C(=O)NCc2ccc(OC(F)(F)F)cc2)CC12CCCCC2 (stereo not drawn) | inactive |
| O=C1C2CN([S+](=O)([O-])c3ccccc3)CCC2OCCN1Cc1ccccc1 (stereo not drawn) | inconclusive: 100 µM [inhibitor, partial curve, poor fit] |
| Cc1ccc(C(=O)N2Cc3c(C(=O)NC4CC4)nn(C)c3C2)cc1F | inactive |
| CCn1cc(-c2ccc(F)cc2)cc1C(=O)NCc1cccnc1 | inconclusive: 50.1 µM [inhibitor, partial curve, poor fit] |
| CCc1nc(-c2c3n(c(=O)n(CC(=O)Nc4ccc(C)cc4)c2=O)CCCCC3)no1 | inactive |
